Experimental data published in PubChem BioAssay AID1508642 (National Center for Advancing Translational Sciences (NCATS), 2021).
In all, about 43,000 compounds went through this assay and about 200 (0.47%) were called active. Inconclusive results (about 12%) are left out. Calls come from the whole dose curve; as a rule, active = well fitted cell-killing curve with a large enough effect; inconclusive = small, poorly fitted or top-dose-only effect, or effect the other way; inactive = flat fitted curve, though single readings scatter. This is one part of the list.

Test: Cell viability qHTS assay in S16 Pmp22-F2sN cells; note: nearly all actives have a fitted effect of over 65% in size
Details: S16 Pmp22-F2sN Schwann cells viability, CellTiter-Glo, 24 h; series mostly up to 57.5 µM; activity change, negative = cytotoxicity: at the top concentration
Procedure, shortened: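 Used to flag compounds lowering reporter output through toxicity, this quantitative HTS measures ATP-based CellTiter-Glo luminescence in S16 Pmp22-F2sN Schwann cells after 24 h compound exposure at 37C.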
% is set by controls: 0 for no effect and ±100 for the full control effect.

Row | Compound | activity change, negative = cytotoxicity
1 | CCC1CN(C(=O)N2CCC(C(=O)N(C)Cc3ccccc3)CC2)c2ccccc2O1 (configuration not stated) | inactive: 1.09%
2 | Cc1ccc(CNC(=O)c2cc(S(=O)(=O)N3CCCCC3)cn2C)cc1 | inactive: 2.36%
3 | COc1ccc2c(c1)c1c(c(=O)n(Cc3ccccc3)c(=O)n1Cc1ccc(C)cc1)n2C | inactive: 6.12%
4 | CC(CNC(=O)CN1C(=O)COc2ccc(S(=O)(=O)N3CCCCC3)cc21)c1ccccc1 (configuration not stated) | inactive: 4.69%
5 | O=C(Nc1ccc(Cl)cc1)C1CCN(S(=O)(=O)c2ccc(Br)s2)CC1 | inactive: -28.7%
6 | Cc1ccccc1C(=O)Nc1ccc(C(=O)OCc2cc(=O)n3nc(C4CC4)sc3n2)cc1 | inactive: -29%
7 | COc1ccc(-c2cc(C(F)(F)F)n3nc(C(=O)Nc4sc5c(c4C#N)CCC(C)C5)cc3n2)cc1OC (configuration not stated) | inactive: 2.6%
8 | CCOC(=O)C1CCN(C(=O)c2cc3ccc4ccc(C)[nH]c4c3n2)CC1 | inactive: 21.6%
9 | CCC(C)NC(=O)c1[nH]c2cc(OC)ccc2c1Sc1ccc(C)cc1 (configuration not stated) | inactive: 6.85%
10 | COc1cccc(NC(=O)c2sc3nc(C)c(C(=O)Nc4ccc(C)cc4C)c(-c4ccccc4Cl)c3c2N)c1 | inactive: 5.07%
11 | Cc1ccc(CCNC(=O)c2ccc(NC(=O)N3CC(C)Sc4ccccc43)cc2)cc1 (configuration not stated) | inactive: -2.81%
12 | COC(=O)C1=C(c2ccccc2)c2ccccc2S(=O)(=O)N1CC(=O)Nc1cccc(C(C)=O)c1 | inactive: -18.7%
13 | Cc1ccc2nc(N(Cc3cccnc3)C(=O)Cc3ccccc3)sc2c1 | inactive: 1.14%
14 | COc1cccc(CN2CCc3nc(Nc4ccc5c(c4)OCCO5)ncc3C2)c1 | inactive: 6.61%
15 | CCc1ccc(-n2c(=O)c3c4c(sc3n(CC(=O)NCCCOC)c2=O)CCCC4)cc1 | inactive: 15.1%
16 | Fc1ccc(NCc2cccn2-c2nnc(N3CCOCC3)s2)cc1 | inactive: 18.4%
17 | CC1CCN(c2ncnc3c2cnn3-c2ccc(F)cc2)CC1 | inactive: 3.19%
18 | O=C(NCCc1cccs1)c1ccc(Cn2c(SCc3ccc(F)cc3)nc3cccnc32)cc1 | inactive: 7.18%
19 | COc1ccc(C(=O)CN2CCN(S(=O)(=O)c3ccc(C(C)C)cc3)CC2)cc1 | inactive: -12.8%
20 | COc1cccc(C2CC(=O)Nc3cc4c(cc32)OCCO4)c1OC (configuration not stated) | inactive: -33.3%
21 | CCOC(=O)c1ccccc1NC(=O)Cn1ncc2c([nH]c3ccccc32)c1=O | inactive: -1.96%
22 | CCc1ccccc1NC(=O)CCn1nc(C)c2c(C)n(-c3ccccc3)nc2c1=O | inactive: 1.92%
23 | Cc1ccccc1Cn1c(SCc2ccc(C(=O)NC(C)c3ccccc3)cc2)nc2ccncc21 (configuration not stated) | inactive: -3.25%

Row | Compound | activity change, negative = cytotoxicity
24 | CCOC(=O)c1oc2ccc(S(=O)(=O)n3nc(-c4ccccc4OC)cc3N)cc2c1C | inactive: -14%
25 | O=C(COC(=O)c1cc(-c2cccs2)nc2ccccc12)c1ccccc1 | inactive: -1.41%
26 | O=C(c1ccc2c(c1)N(Cc1ccccc1F)C(=O)c1ccccc1S2(=O)=O)N1CCOCC1 | inactive: 8.02%
27 | CCCN(CCC)CCCNC(=O)Cn1cnc2sc(C)c(S(=O)(=O)N3CCCCC3)c2c1=O | inactive: 0.556%
28 | CCCN(Cc1cccs1)C(=O)Nc1cc(Cl)c(OC)cc1OC | inactive: 3.5%
29 | COc1cccc(-n2c(SCC(=O)Nc3cc(C)ccc3C)nc3c(oc4ccccc43)c2=O)c1 | inactive: -4.84%
30 | COc1ccc(-c2cc(C(=O)Oc3ccccc3)c3cc(C)ccc3n2)cc1 | inactive: -18.5%
31 | CCn1c(=O)n(-c2ccc(C)c(F)c2)c(=O)c2sc3ccccc3c21 | inactive: -5.41%
32 | COc1ccc(C2=NC3(CCCCC3)N(CC(=O)Nc3ccc(C(C)C)cc3)C2=O)cc1 | inactive: -16%
33 | CCOCCCNC(=O)c1ccc2nc(CCc3ccccc3)oc2c1 | inactive: -0.604%
34 | Cc1ccc(-c2nc3nc(C)cc(N4CCN(c5cc(Cl)ccc5C)CC4)n3n2)cc1 | inactive: -2.91%
35 | CCc1ccc(NC(=O)C(NS(=O)(=O)c2cccs2)C(C)C)cc1 (configuration not stated) | inactive: -3.37%
36 | O=C(Nc1ccc2oc(-c3cccc4c(Br)cccc34)nc2c1)c1ccc(F)cc1 | inactive: 12.1%
37 | Cn1c(=O)c2c(c3ccccc31)OC(=O)CC2c1ccc(C(F)(F)F)cc1 (configuration not stated) | inactive: 0.14%
38 | Cc1ccc(NC(=O)c2nn(C)c3c2CS(=O)(=O)c2ccccc2-3)c(Cl)c1 | inactive: -2.04%
39 | COc1ccc(NC(=O)c2cn(CC(C)C)c(=O)c3cc(OC)c(OC)cc23)cc1Cl | inactive: -12.4%
40 | NS(=O)(=O)c1ccc(CCNC(=O)CCCCCn2c(=O)[nH]c3ccccc3c2=O)cc1 | inactive: 0.343%
41 | CCc1cccc(NC(=O)CSc2ncc3c(n2)-c2ccc(Cl)cc2N(Cc2ccccc2)S3(=O)=O)c1 | inactive: -1.28%
42 | CCc1c(C)sc2c1CCN(C(=O)Nc1cc(OC)c(OC)c(OC)c1)C2c1ccccc1 (configuration not stated) | inactive: -19%
43 | COc1cccc(C(=O)NC2(C(F)(F)F)C(=O)Nc3c2c(=O)[nH]c(=O)n3-c2ccc(C)cc2)c1 (configuration not stated) | inactive: 4.45%
44 | Cc1nc(N2CCOCC2)c2c(C(=O)NCc3cccc(Cl)c3)c(C)oc2n1 | inactive: 10.9%
45 | Oc1c(C(c2ccccc2)N2CCC3(CC2)OCCO3)sc2nc(-c3ccco3)nn12 (configuration not stated) | inactive: -0.0139%
46 | COc1ccc(-c2nc3c(c(SCC(=O)Nc4ccc(C(=O)O)cc4)n2)Cc2ccccc2O3)cc1 | inactive: 2.09%

Row | Compound | activity change, negative = cytotoxicity
47 | CCOC(=O)Cc1ccc(NC(=O)Nc2cccc(OCc3cc(=O)n4cc(C)ccc4n3)c2)cc1 | inactive: 9.52%
48 | O=C(c1noc2c1CCCCC2)N1CCN(c2ccc(Cl)cc2)CC1 | inactive: -0.439%
49 | CCc1ccc(-c2cn3c(n2)sc2cc(C(=O)NCCc4ccc(OC)cc4OC)ccc23)cc1 | inactive: 18.3%
50 | COc1ccccc1NC(=O)Cn1c(=O)n(Cc2ccc3c(c2)OCO3)c(=O)c2oc3ccccc3c21 | inactive: 1.69%
51 | CN(Cc1ccccc1)C(=O)CN1C(=O)CSc2ccc(S(=O)(=O)N3CCOCC3)cc21 | inactive: 12.8%
52 | COc1ccc(OC)c(S(=O)(=O)Nc2cc3c(cc2C)n(C)c(=O)c(=O)n3C)c1 | inactive: -19.7%
53 | Cc1ccc(NC(=O)CN(c2ccccc2)S(=O)(=O)N(C)C)cc1Cl | inactive: 2.26%
54 | CCCCN(CCCC)CCNC(=O)c1cn(C)c2ccc(S(=O)(=O)N3CCOCC3)cc2c1=O | inactive: 7.9%
55 | Cc1c(Cl)cccc1NS(=O)(=O)c1ccc2[nH]cc(C(=O)NC3CCCC3)c(=O)c2c1 | inactive: -8.36%
56 | COc1cccc(N2CC(NC(=O)Cc3cccs3)CC2=O)c1 (configuration not stated) | inactive: 3.54%
57 | CCOc1ccc(OCC)c(Nc2nc3ccccc3c3nnc(C)n23)c1 | inactive: 4.1%
58 | Cc1ccc2c(c1)c1c(c(=O)n(-c3ccccc3)c(=O)n1CC(=O)N1CCCC1)n2C | inactive: 12.9%
59 | CCn1cc(C(=O)NCCc2ccc(C)cc2)c(=O)c2cc(S(=O)(=O)N(C)C)ccc21 | inactive: -3.39%
60 | Cc1cc(C)c(Cn2c3ccccc3c3cnn(CC(=O)N4CCCCC4)c(=O)c32)c(C)c1 | inactive: 6.46%
61 | CN1C(=O)CC(=O)N(C)c2cc(S(=O)(=O)N(C)Cc3ccccc3)ccc21 | inactive: -13.5%
62 | Cc1ccccc1C(=O)Nc1ccccc1C(=O)OCc1cc(=O)n2ccsc2n1 | inactive: 1.88%
63 | COc1ccc2c(c1)c1c(c(=O)n(-c3ccc(OC)c(OC)c3)c(=O)n1Cc1ccccc1C)n2C | inactive: 0.625%
64 | CC(=O)c1cccc(NS(=O)(=O)c2ccc3[nH]c4c(c3c2)CCCCCC4)c1 | inactive: -25.6%
65 | Cc1ccc(-n2ncc(C(=O)NCCN3CCN(C)CC3)c2C2CCN(C(=O)OC(C)(C)C)CC2)c(C)c1 | inactive: -0.624%
66 | COc1cccc(CNC(=O)CCn2c(=O)c3cccn3c3ccc(F)cc32)c1OC | inactive: -17%
67 | COc1ccc(-n2nc(C(=O)N(C)c3cccc(C(F)(F)F)c3)c3c4ccccc4n(C)c3c2=O)cc1 | inactive: 23.8%
68 | CCCNC(=O)C1CCC(Cn2c(=O)c3sccc3n(Cc3cccc(OC)c3)c2=O)CC1 (configuration not stated) | inactive: 1.38%
69 | CCC(C(=O)N1CCN(c2cccc(C)c2C)CC1)n1nc(C)c2sc3ccccc3c2c1=O (configuration not stated) | inactive: -0.394%

Row | Compound | activity change, negative = cytotoxicity
70 | Cc1nc2nc(NC(=O)c3cccc(Cl)c3)[nH]n2c(=O)c1Cc1ccccc1 | inactive: 1.56%
71 | CCn1nnc2cc(C(=O)Nc3cccc(Cl)c3)ccc21 | inactive: -4.55%
72 | O=S(=O)(c1ccc(Br)cc1)c1nc(-c2ccco2)oc1SCc1ccccc1Cl | inactive: -27.1%
73 | Cc1ccc(CCNC(=O)c2nn(C)c3c2CSc2ccccc2-3)cc1 | inactive: -20.1%
74 | CCCCOc1ccc(CNC(=O)CN2CCSc3ccccc32)cc1 | inactive: 22.5%
75 | CCOC(=O)c1c(S(=O)(=O)N2CCC(C(=O)Nc3ccccc3OC)CC2)c(C)n(CC)c1C | inactive: -3.51%
76 | COc1ccc(CCNC(=O)Cn2cc(C(=O)c3ccccc3)c(=O)c3ccc(C)nc32)cc1OC | inactive: 3.37%
77 | CCOC(=O)C1CCC(CN(Cc2ccccc2)S(=O)(=O)c2ccc(Cl)cc2)CC1 (configuration not stated) | inactive: -2.45%
78 | COc1ccc(CCNC(=O)CCc2c(C)nc3c(c(C)nn3-c3ccc(C)c(C)c3)c2C)c(OC)c1OC | inactive: 0.662%
79 | CCN1C(C(=O)c2ccccc2)=C(OC(=O)c2ccc(OC)cc2)c2ccccc2S1(=O)=O | inactive: -3.17%
80 | CCc1cccc(C)c1NC(=O)Cn1cc2c(n1)CCCC2 | inactive: -4.81%
81 | Cn1c(=O)c2c(-c3ccc(Br)cc3)n(CCc3ccccc3)cc2n(C)c1=O | inactive: -18.9%
82 | Cc1ccc(NC(=O)c2oc3ccc(S(=O)(=O)N4CCCCC4)cc3c2C)cc1Cl | inactive: -9.89%
83 | CCN(Cc1ccccc1)C(=O)CCc1c(C)nc2c(c(C)nn2-c2ccc(C)c(C)c2)c1C | inactive: 1.36%
84 | Cc1ccc(-n2c(=O)c3c4c(sc3n(Cc3ccccc3C)c2=O)CCC4)cc1C | inactive: 3.63%
85 | Cc1ccc(NC(=O)Nc2nnc(N(C)C3CCCCC3)s2)c(Cl)c1 | inactive: 2.75%
86 | Cc1cc(C)c(/C=C/c2onc(C)c2S(=O)(=O)N2CCC(C(=O)N(C)Cc3ccccc3)CC2)c(C)c1 | inactive: -8.12%
87 | O=C(Nc1ccc2c(c1)OCO2)c1cc(-c2ccc(Br)cc2)on1 | inactive: -7.16%
88 | Cc1ccccc1C(=O)Nc1nc2nc(-c3ccccc3)cc(=O)n2[nH]1 | inactive: 4.28%
89 | CCC(C)(C)NC(=O)C1CCN(S(=O)(=O)c2c(C)noc2/C=C/c2ccc(C)cc2)CC1 | inactive: 18.4%
90 | COc1ccc(NC(=O)C2=CC(c3ccc4c(c3)OCO4)=NS(=O)(=O)N2C)cc1 | inactive: -1.32%
91 | COc1ccc(C)cc1NC(=O)C1COc2ccccc2C1 (configuration not stated) | inactive: -6.22%
92 | Fc1ccc(-n2cc(-c3ccccc3)c3c(NCCc4ccccc4)ncnc32)cc1 | inactive: -2.29%
